42 molecules from ChEMBL document CHEMBL4888484, “Replenishing the malaria drug discovery pipeline: Screening and hit evaluation of the MMV Hit Generation Library 1 (HGL1) against asexual blood stage Plasmodium falciparum ,using a nano luciferase reporter read-out” (2022) can be followed below.

Out of some 150,000 compounds screened, about 540 (0.36%) showed an effect of 50% or more. The list shows a part of the results.

The assay deals with Plasmodium falciparum. The assay can be described thus: Primary screen in NF54 nanoGlo assay, in single point, at 2uM, 72h; a lower Z score goes with more inhibition. It is filed as functional, Erythrocyte. The conditions noted are these: timepoint 72 hour.
Regarding `CC(C)[C@@H]1N(C(=O)c2ccnn2C(C)C)CC12CCC2`, the “% Inhibition” value came to 8% and the Z score is given as -1.11.

Consider `CCN(CCN(C)C)C(=O)Nc1ccc(OC(F)F)cc1C`, for which the “% Inhibition” value stood at 0% and the Z score was -0.05.

As to `CCCn1c(=O)cc(-c2ccccc2)c2ccc(OCC(=O)NCC3CC3)cc21`, the “% Inhibition” value stood at 8% and the Z score is -0.91.

Regarding `CC(C)Oc1ccc(-c2ccc(NC(=O)N(C)Cc3cn(C)nn3)c(F)c2)cc1`, the “% Inhibition” value worked out at 8% and the Z score is on record as -0.91.

As for `C[C@H](NC(=O)C(C)(C)S(C)(=O)=O)c1ccc(Cl)cn1`, the “% Inhibition” value is -11% and the Z score turned out to be 1.63.

As for `COC1CCN(C[C@H]2CCCCCN2C(=O)Nc2ccccc2)CC1`, the “% Inhibition” value is recorded as -5% and the Z score amounted to 0.83.

`CCc1nc(C)c(-c2c(C)c(-c3cnn(C)c3)nc(N)c2C#N)[nH]1`: the “% Inhibition” value is on record as 3% and the Z score is recorded as -0.66.

For `Cc1cnc(NC(=O)CCC(C)C)s1`, the “% Inhibition” value was -14% and the Z score is listed as 1.26.

For `CO[C@H]1C[C@@H](O)C12CCN(C(=O)c1cccc(Oc3ccccc3)c1)CC2`, the “% Inhibition” value is -12% and the Z score was 2.28.

`CN(CC1CC1)C(=O)CN(CC(=O)N(C)CC1CC1)Cc1cccnc1`: the “% Inhibition” value was -4% and the Z score was determined as 0.69.

In the case of `Cc1ccc(N2CCCN(Cc3cccc(OC(F)(F)F)c3)C2=O)c(NC(=O)Cc2ccccc2)c1`, the “% Inhibition” value turned out to be 16% and the Z score was -3.06.

Turning to `CC(C)(C)OC(=O)CCC(=O)N1CCCOc2ccccc21`, the “% Inhibition” value is recorded as -4% and the Z score is reported as 0.51.

Consider `O=C(NC[C@H](O)c1csc2ccccc12)c1ccsc1`, for which the “% Inhibition” value is on record as 10% and the Z score is -1.29.

`Cc1ncsc1NC(=O)Cc1csc(Cc2cccc(Cl)c2)n1`: the “% Inhibition” value is -1% and the Z score was determined as 0.13.

`CCCC[C@H](NC(=O)OCc1ccccc1)C(=O)O`: the “% Inhibition” value is on record as -19% and the Z score turned out to be 2.39.

For the molecule `O=C(c1cscn1)N1CCCc2c(F)cc(Br)cc21`, the “% Inhibition” value was 1% and the Z score is -0.12.

Consider `Cc1ccccc1NC(=O)Cc1nnc(N)s1`, for which the “% Inhibition” value was determined as 40% and the Z score was -4.57.

Turning to `CCCCC1C2C(=O)N(c3ccccc3C)C(=O)C2ON1c1ccccc1` (centres undefined), the “% Inhibition” value is on record as -7% and the Z score worked out at 0.76.

`CC[C@@](C)(C(=O)Nc1ccc(N2CCOCC2)cc1)N(Cc1cccnc1)C(=O)Cn1nnc2ccccc21`: the “% Inhibition” value is -32% and the Z score is 3.74.

For `CN(CC(=O)NC[C@H]1CCCO1)Cc1ccc(Br)o1`, the “% Inhibition” value is -4% and the Z score stood at 0.57.

With `CCC[C@H]1c2nc[nH]c2CCN1Cc1ccnn1-c1ccccc1`, the “% Inhibition” value is listed as -4% and the Z score is on record as 0.81.

On to `CCOc1ccc(Cl)cc1CN(C)CCCS(=O)(=O)N(C)C`, for which the “% Inhibition” value is -8% and the Z score is listed as 0.88.

Take `CC(NC(=O)N1CCCC(O)CC1)c1ccc(F)c2ccccc12` (centres undefined): the “% Inhibition” value is given as -10% and the Z score is recorded as 1.09.

For `COCCOc1cc(C)c2c(c1C)C[C@H]([C@H](C)C(=O)NC1CCCC1)CC2`, the “% Inhibition” value is recorded as -2% and the Z score worked out at 0.24.

As for `CCCN(CCC)S(=O)(=O)c1c(C)nn(Cc2ccon2)c1C`, the “% Inhibition” value was 3% and the Z score is reported as -0.29.

Take `CCn1cc(C2OCCC2CNCc2ccccn2)cn1` (centres undefined): the “% Inhibition” value was -9% and the Z score was determined as 1.21.

Take `Cn1cc(CCC(=O)N(C2CCCCC2)[C@H]2CCS(=O)(=O)C2)cn1`: the “% Inhibition” value is recorded as 11% and the Z score is -1.41.

As for `O=C(Cn1nc(C(F)F)c2c1CCC2)NC1CCCCCC1`, the “% Inhibition” value turned out to be 6% and the Z score was -0.97.

As for `C=CCN(C(=O)c1cc(-c2ccccc2)on1)[C@H]1CCS(=O)(=O)C1`, the “% Inhibition” value is on record as -1% and the Z score is 0.06.

Turning to `CC(C)C[C@@H](C(=O)N[C@@H](Cc1ccccc1)C(=O)O)n1c(=O)[nH]c2ccccc2c1=O`, the “% Inhibition” value is listed as 3% and the Z score is on record as -0.44.

Consider `C#CCN(Cc1nnc(C(=O)Nc2ccc(CC)cc2)s1)[C@H]1CCc2ccccc21`, for which the “% Inhibition” value was -10% and the Z score is recorded as 1.51.

For `O=C(Nc1ccc(-c2ncco2)cc1)N[C@H]1CCCC[C@@H]1O`, the “% Inhibition” value was determined as 28% and the Z score is recorded as -3.21.

In the case of `COc1ccc(S(=O)(=O)N2CCOCC2)cc1NC(=O)CN1CCCC1`, the “% Inhibition” value amounted to 4% and the Z score is on record as -0.74.

For `N#Cc1cccc(NC(=O)CN2N=C(c3ccccc3)c3ccccc3S2(=O)=O)c1`, the “% Inhibition” value is reported as -14% and the Z score is recorded as 1.32.

Consider `Cc1ccc(NC(=O)CCc2c(C)nn(-c3ccccc3C)c2Oc2cccc(C)c2)cc1`, for which the “% Inhibition” value is listed as -4% and the Z score worked out at 0.51.

Consider `CC1(C)OCC[C@@H]1NS(=O)(=O)c1ccc2c(c1)OCCO2`, for which the “% Inhibition” value is on record as -16% and the Z score is given as 1.38.

Take `CCCn1ncc(CN2CCO[C@H](C(N)=O)C2)c1C`: the “% Inhibition” value is on record as -16% and the Z score was determined as 1.49.

As for `CCn1c([C@](O)(c2ccccc2)c2ccc(C)cc2)nc2ccccc21`, the “% Inhibition” value is given as -5% and the Z score came out at 0.61.

Turning to `CCCN(CC1CC1)C(=O)Nc1cccc2ccccc12`, the “% Inhibition” value was determined as 6% and the Z score was -1.09.

In the case of `CN(c1ncnc2ccc(Cl)cc12)C1CCCC1O` (centres undefined), the “% Inhibition” value is listed as -9% and the Z score is on record as 1.11.

With `C[C@@H](C1CCN(C(=O)Cc2ccc(O)c(F)c2)CC1)N1CCCC1`, the “% Inhibition” value is -16% and the Z score came to 1.88.

On to `CC(C)NC(=O)N1CCC2(CC1)C[C@@H](Cc1cccc(F)c1)CCO2`, for which the “% Inhibition” value was -1% and the Z score came to 0.08.

For orientation: % Inhibition means the drop in the measured response relative to a control, in per cent.
